Data: PubChem BioAssay AID938 (National Center for Advancing Translational Sciences (NCATS), 2007)
Where “and” joins values, the source holds several entries; their conditions need not be identical. Equal values may be shown once. Out of some 73,000 compounds screened, about 1,800 (2.5%) were called active. Inconclusive results, whose numbers are uncertain, are shown with a selection of clear calls. The call rests on the fitted dose curve; in most records, active means well fitted activation curve with a large enough effect; inconclusive means small, poorly fitted or top-dose-only effect; inactive means no such curve, though single readings can be large or run the other way. A potency beside an inconclusive call is a rough fit, not a confirmed value.

assay: qHTS Assay for Agonists of the Thyroid Stimulating Hormone Receptor: Activators of Intracellular cAMP Concentrations in Parental HEK 293; conditions: parental HEK293 CNG cAMP sensor, membrane potential fluorescence; activation: at 57.1 µM (top of the series); further: nearly all actives have a fitted effect of over 55% in size; on activation: % of control where 0% means no effect
How it was run: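 Counterscreen for endogenous-receptor signalling: CNG-channel HEK 293 cells report cAMP rise by membrane depolarization. After 60 min dye equilibration with 100 uM RO 20-1724, compounds incubated 30 min before bottom-read fluorescence at 590 nm.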
Potency means the concentration at half of the fitted maximal effect; tags describe the fitted curve by direction and shape.

Q: Which Potency does the source give for `CCCCNC(=O)n1c(NC(=O)OC)nc2ccccc21` here?
A: Its Potency is inconclusive: 39.8 µM [activator, single point].

Q: Which Potency does the source give for `Nc1ccccc1Cl` here?
A: The Potency was inconclusive: 39.8 µM [activator, single point].

Q: With `c1ccc2c(c1)[I+]c1ccccc1-2` as the compound, how does the Potency read?
A: Its Potency is inconclusive: 20 µM [activator, partial curve].

Q: For `O=C1OC(=O)c2c(Br)c(Br)c(Br)c(Br)c21`, which Potency is on record?
A: The Potency was inconclusive: 39.8 µM [activator, single point].

Q: Which activation does the source give for `Cc1ccc(C2(c3ccc(C)c(O)c3C)CCN(C)CC2)c(C)c1O` here?
A: The activation was inactive: -4.93% [at 11.4 µM].

Q: For `COc1ccc(CN2CCN(c3ccccc3F)CC2)c(OC)c1`, which Potency is on record?
A: Its Potency is inconclusive: 3.98 µM [activator, partial curve].

Q: With `C[C@H](CN(C)C)C(C#N)(c1ccccc1)c1ccccc1` as the compound, how does the activation read?
A: The activation was inactive: -3.86% [at 11.4 µM].

Q: With `ClC1=C(Cl)C(Cl)(Cl)C(Cl)=C1Cl` as the compound, how does the “activation” value read?
A: Its value is inactive: 12%.

Q: With `COC(=O)[C@@H]1C[C@H]1[C@@H](NP(=O)(c1ccccc1)c1ccccc1)c1ccccc1` as the compound, how does the Potency read?
A: Its Potency is active: 12.6 µM.

Q: With `Cc1cccc([C@H](C)c2cnc[nH]2)c1C` as the compound, how does the Potency read?
A: The Potency was inconclusive: 31.6 µM [activator, partial curve, poor fit].

Q: For `CCCCCCCCc1ccc(O)cc1`, which “activation” value is on record?
A: Its value is inactive: 16.2%.

Q: Which “activation” value does the source give for `CN1C[C@H](CO)C=C2c3cccc4[nH]cc(c34)C[C@@H]21` here?
A: Its value is inactive: -8.53% [at 25.6 µM].

Q: Which Potency does the source give for `BrCC(Br)C1CCC(Br)C(Br)C1` (centres undefined) here?
A: The Potency was inconclusive: 39.8 µM [activator, single point].

Q: For `Cc1nccc2c1[nH]c1ccccc12`, which Potency is on record?
A: Its Potency is “inactive”.

Q: With `CCOc1ccc(Cn2c(=O)oc3ccc(C)cc32)cc1OC` as the compound, how does the Potency read?
A: Its Potency is inconclusive: 39.8 µM [activator, single point].

Q: Which Potency does the source give for `C[C@@]12CC[C@H]3[C@@H](CCC4=CC(=O)CC[C@]43C)[C@H]1CCC2=O` here?
A: The Potency was inconclusive: 6.31 µM [activator, single point].

Q: For `COc1cc([C@H]2c3cc4c(cc3[C@@H](O)[C@@H]3COC(=O)[C@H]23)OCO4)cc(OC)c1OC`, which Potency is on record?
A: The Potency was inconclusive: 5.01 µM [activator, partial curve] and inconclusive: 3.16 µM [activator, partial curve].

Q: For `O=C(Nc1ccccc1)N1CC2(CCN(C(=O)Oc3ccccc3)CC2)C1`, which Potency is on record?
A: Its Potency is inconclusive: 3.98 µM [activator, partial curve].

Q: With `CCn1cc(C(=O)O)c(=O)c2ccc(Cc3ccccc3)nc21` as the compound, how does the Potency read?
A: The Potency was inconclusive: 39.8 µM [activator, single point].

Q: For `Cc1ccc2c(c1)C1CN(C)CCC1N2C(=O)c1ccc(Br)o1` (centres undefined), which “activation” value is on record?
A: Its value is inactive: 16.6%.

Q: Which Potency does the source give for `CN1CCN(C(=O)COc2ccc(-c3nc4ccccc4s3)cc2)CC1` here?
A: Its Potency is inconclusive: 39.8 µM [activator, single point].

Q: With `COc1ccc2c3c([nH]c2c1)C(C)=NCC3` as the compound, how does the Potency read?
A: Its Potency is inconclusive: 2.51 µM [activator, partial curve, poor fit] and inconclusive: 31.6 µM [activator, single point].

Q: For `c1ccc(CN2CCC3(CCc4ccccc43)CC2)cc1`, which Potency is on record?
A: The Potency was active: 31.6 µM.

Q: With `O=C1CS[C@@H](c2ccccc2Cl)c2cc(Cl)ccc2N1` as the compound, how does the Potency read?
A: The Potency was inconclusive: 39.8 µM [activator, single point].

Q: Which Potency does the source give for `C#CCN1C(C)=C(C(=O)CCO)[C@@H](c2cccc(-n3oo3)c2)C(C(=O)OC)=C1C` here?
A: The Potency was inconclusive: 25.1 µM [activator, partial curve].

Q: For `COC(=O)[C@@]1(Cc2ccccc2)[C@H]2c3cc(C(=O)N(C)C)n(C)c3C[C@H]2CN1C(=O)c1ccccc1`, which Potency is on record?
A: The Potency was active: 25.1 µM.

Q: For `COc1ccc2c(c1)c(C(=O)CN1CCN(C)CC1)c(C)n2Cc1ccccc1`, which Potency is on record?
A: Its Potency is inconclusive: 15.8 µM [activator, partial curve].

Q: With `CC[C@H]1[C@@H]2C[C@@H]3[C@@H]4N(C)c5ccccc5[C@@]45C[C@@H]([C@H]2[C@@H]5O)N3[C@@H]1O` as the compound, how does the Potency read?
A: Its Potency is inconclusive: 39.8 µM [activator, single point].

Q: For `CCCNC(=O)c1c(N)n(Cc2ccc3c(c2)OCO3)c2nc3ccccc3nc12`, which “activation” value is on record?
A: The value was inactive: 1.58%.

Q: Which Potency does the source give for `O=C(CSc1nnc2c3c4c(sc3ncn12)CCCC4)NCc1ccco1` here?
A: The Potency was active: 12.6 µM.

Q: For `O=C(NCc1ccco1)C(c1ccco1)N(C(=O)Cn1nnc2ccccc21)c1ccc2c(c1)CCC2` (centres undefined), which Potency is on record?
A: The Potency was inconclusive: 25.1 µM [activator, single point].

Q: For `O=c1ccc2cc(O[C@@H]3O[C@@H](CO)[C@@H](O)[C@@H](O)[C@H]3O)c(O)cc2o1`, which “activation” value is on record?
A: Its value is inactive: -0.547%.

Q: For `C[C@@]12CC[C@H]3[C@@H](CC=C4C[C@H](OS(=O)(=O)O)CC[C@]43C)[C@H]1CCC2=O`, which Potency is on record?
A: The Potency was inconclusive: 3.98 µM [activator, single point].

Q: For `O=C1C(Cl)=C(N2CCCCCC2)C(=O)N1c1ccccc1`, which Potency is on record?
A: Its Potency is inconclusive: 10 µM [activator, partial curve].

Q: For `C[N+](=O)[O-]`, which “activation” value is on record?
A: Its value is inactive: -12.6%.

Q: Which Potency does the source give for `CC[C@H](CO)NC(=O)[C@@H]1C=C2c3cccc4[nH]cc(c34)C[C@@H]2N(C)C1` here?
A: Its Potency is inconclusive: 6.31 µM [activator, single point].

Q: Which Potency does the source give for `Nc1c(C(=O)NC2CCCC2)c2nc3ccccc3nc2n1CC1CCCO1` (centres undefined) here?
A: The Potency was inconclusive: 6.31 µM [activator, partial curve].

Q: With `C[C@H](Cc1ccc2c(c1)OC(C(=O)O)(C(=O)O)O2)NC[C@H](O)c1cccc(Cl)c1` as the compound, how does the “activation” value read?
A: The value was inactive: 6.18%.

Q: Which Potency does the source give for `CC1CN=C(Nc2ccccc2)S1` (centres undefined) here?
A: The Potency was inconclusive: 3.16 µM [activator, single point].

Q: With `Cc1cc(Cl)ccc1N=Cc1c(O)n(C)c(=O)n(C)c1=O` as the compound, how does the Potency read?
A: Its Potency is inconclusive: 3.98 µM [activator, single point].

Q: Which “activation” value does the source give for `Cn1cccc1CN1CCN(C(=O)COc2ccccc2)CC1` here?
A: Its value is inactive: -2.8%.

Q: For `CCC1CCCCN1P(=O)(c1ccc(C)o1)C(C)(C)C` (centres undefined), which Potency is on record?
A: Its Potency is inconclusive: 20 µM [activator, partial curve].

Q: Which Potency does the source give for `C=C(C)[C@H]1Cc2c(ccc3c2O[C@@H]2COc4cc(OC)c(OC)cc4[C@@H]2C3=O)O1` here?
A: The Potency was inconclusive: 1.26 µM [activator, full curve].

Q: With `CC[C@]1(C2=NCCN2)Cc2ccccc2O1` as the compound, how does the Potency read?
A: Its Potency is inconclusive: 6.31 µM [activator, single point].
